# Data: the supplement of paper PMC8183993
# “And” between values parts separate entries of the source, which are not always exact repeats. Equal entries are not always repeated. Structures can show the parent of a compound that is named as a salt. ± gives the standard deviation of the averaged measurements. Whole data set: some 3,200 compounds, median “nuclei count (viability) relative to DMSO” near 99, cut for the lowest 2% near 16. This is one part of the list.
# Tested on: U2OS
# Experiment: nuclei count (viability) relative to DMSO (% of DMSO); higher = more viable cells
# Conditions: 10 µM; 24 h
# Description: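 Primary image-based screen in U2OS cells: compounds at 10 uM for 24 h, then a 1 h o-propargyl-puromycin (OPP) pulse, click labelling, and high-throughput microscopy. Mean cytoplasmic OPP intensity and nuclei count were normalised to DMSO wells within each plate (DMSO = 100) and averaged over triplicate plates.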
row,SMILES,nuclei count
1,O=C1[C@H](Cc2ccc(O)cc2)N2C(=O)CCN(C(=O)NCc3ccccc3)[C@H]2CN1Cc1cccc2ccccc12,80.8
2,COC(=O)Nc1nc2cc(C(=O)c3ccccc3)ccc2[nH]1 [Mebendazole],22
3,CC1(C)S[C@@H]2[C@H](NC(=O)[C@H](NC(=O)N3CCNC3=O)c3ccccc3)C(=O)N2[C@H]1C(=O)O [Azlocillin sodium salt],102 ± 1.7
4,NCCNCCNCCNCCN [Tetraethylenepentamine pentahydrochloride],90.1
5,Nc1nc2c(ncn2[C@@H]2O[C@H](CO)[C@@H](O)[C@H]2O)c(=O)[nH]1 [Guanosine],117
6,Clc1cnccn1 [2-Chloropyrazine],112
7,Cc1cc2c(cc1S(N)(=O)=O)S(=O)(=O)CCC2 [Meticrane],108
8,CN(C)/N=N/c1[nH]cnc1C(N)=O [Dacarbazine],98.9
9,CCCCCCCCc1ccc(-c2ccc(C(=O)O)cc2)cc1,108
10,CC[N+](C)(C)Cc1ccccc1Br [Bretylium tosylate],104
11,C[N+](C)(C)CCCCCC[N+](C)(C)C [Hexamethonium dibromide dihydrate],95.9
12,CC1C(=O)OC2C(O)C34C5CC(C(C)(C)C)C36C(OC(=O)C6O)OC4(C(=O)O5)C12O (centres undefined) [Ginkgolide B],95
13,O=c1[nH]ccc2c(S(=O)(=O)N3CCCNCC3)cccc12 [HA 1100 hydrochloride],112
14,CN1C(C)(C)CCCC1(C)C [Pempidine tartrate],105
15,Cn1cc(-c2ccc3ncc(Cc4ccc5ncccc5c4)n3n2)cn1,97 ± 2.9
16,CC1(C)Oc2ccc(C#N)cc2[C@@H](N2CCCC2=O)[C@@H]1O [Levcromakalim],104
17,Cc1onc(-c2c(Cl)cccc2Cl)c1C(=O)N[C@@H]1C(=O)N2[C@@H]1SC(C)(C)[C@@H]2C(=O)O [Dicloxacillin sodium salt hydrate],97.9
18,Cc1cc(NC(=O)Nc2ccc(N(C)C)cc2)c2cc(F)cc(F)c2n1,87.5
19,CCOC(=O)[C@H](CCc1ccccc1)N[C@@H](C)C(=O)N1Cc2ccccc2C[C@H]1C(=O)O [Quinapril HCl],106
20,CC(CCc1ccccc1)NCC(O)c1ccc(O)c(C(N)=O)c1 (centres undefined) [Labetalol hydrochloride],106
21,O=C(O)c1cccnc1Nc1cccc(C(F)(F)F)c1 [Niflumic acid],97.7 ± 6.6
22,Cc1oncc1C(=O)Nc1ccc(C(F)(F)F)cc1 [Leflunomide],108 ± 3.4
23,O=c1[nH]c2cc(C(F)(F)F)c(N3CCOCC3)cc2n(CP(=O)(O)O)c1=O,102
24,COc1ccc(C(Cl)=C(c2ccc(OC)cc2)c2ccc(OC)cc2)cc1 [Chlorotrianisene],74.4
25,"O=C(O)COc1ccc(OCCNC[C@H](O)COc2ccccc2)cc1 [ICI 215,001 hydrochloride]",107
26,O=C[C@H](O)[C@@H](O)[C@H](O)CO [Xylose],97.8
27,Cc1cc(C(C)(C)C)c(O)c(C)c1CC1=NCCN1 [Oxymetazoline hydrochloride],106 ± 3.4

row,SMILES,nuclei count
1,CN(C)CCCN1c2ccccc2Sc2ccccc21 [Promazine hydrochloride],100
2,NS(=O)(=O)c1cc(C(=O)O)cc(N2CCCC2)c1Oc1ccccc1 [Piretanide],110
3,CC(C)(C(=O)O)c1ccc(C(O)CCCN2CCC(C(O)(c3ccccc3)c3ccccc3)CC2)cc1 (centres undefined) [Fexofenadine HCl],94
4,CC(C)(C(=O)O)c1ccc(C(O)CCCN2CCC(C(O)(c3ccccc3)c3ccccc3)CC2)cc1 (centres undefined) [Fexofenadine hydrochloride],104
5,O=c1cc(N2CCOCC2)oc2c(-c3cccc4c3sc3ccccc34)cccc12,92.7
6,NC(N)=S [Thiourea],103
7,COc1cccc(-c2cc(NCc3ccc4c(c3)OCO4)nc(N)n2)c1,19.1
8,COc1ccc([C@@H]2CC(=O)c3c(O)cc(O[C@@H]4O[C@H](CO[C@@H]5O[C@@H](C)[C@H](O)[C@@H](O)[C@H]5O)[C@@H](O)[C@H](O)[C@H]4O)cc3O2)cc1O [Hesperidin],100 ± 1.3
9,COC(c1ccccc1)(c1ccccc1)[C@H](Oc1nc(C)cc(C)n1)C(=O)O [Ambrisentan],107 ± 3.6
10,COC(=O)C1=C(C)NC(C)=C(C(=O)OCCN2CCN(C(c3ccccc3)c3ccccc3)CC2)C1c1cccc([N+](=O)[O-])c1 (centres undefined) [Manidipine (Manyper)],98.6
11,Cc1c(C)c2c(c(C)c1O)CCC(C)(COc1ccc(CC3SC(=O)NC3=O)cc1)O2 (centres undefined) [Troglitazone],110 ± 1.9
12,Cc1ccc(O)c(N=Nc2ccccc2)n1,97.6
13,C[N+]1(C)[C@@H]2CC[C@H]1C[C@@H](OC(=O)C(O)c1ccccc1)C2 (some centres undefined) [Homatropine Methylbromide],103
14,C[N+]1(C)[C@@H]2C[C@@H](OC(=O)C(O)(c3cccs3)c3cccs3)C[C@H]1[C@@H]1O[C@@H]12 [Tiotropium Bromide hydrate],102
15,CC(C(=O)O)c1ccc2c(c1)Cc1cccnc1O2 (centres undefined) [Pranoprofen],95.3
16,CSc1ccc2c(c1)C(N1CCN(C)CC1)Cc1ccccc1S2 (centres undefined) [Methiothepin maleate],91.46 ± 0.13
17,COC(=O)C[C@H](NC(=O)[C@H](C)NC(=O)[C@@H](NC(=O)OCc1ccccc1)C(C)C)C(=O)CF,106
18,O=C(/C=C/c1ccc2ccccc2n1)c1ccncc1,11.3
19,CC(=O)Nc1ccccc1 [Acetanilide (Antifebrin)],102
20,COc1ccc2ccc(=O)oc2c1CC=C(C)C [Osthole (Osthol)],74.8
21,O=C(Nc1nc2cccc(-c3ccc(CN4CCS(=O)(=O)CC4)cc3)n2n1)C1CC1 [Filgotinib£¬GLPG0643)],80.6
22,N=C(N)NS(=O)(=O)c1ccc(N)cc1 [Sulfaguanidine],106
23,CC(=O)Oc1ccccc1C(=O)O [Acetylsalicylic acid],99.9
24,CCCCNC(=O)[C@@H]1Cc2ccccc2N1C(=O)[C@@H](N)CC [Butabindide oxalate],102
25,CNS(=O)(=O)CCc1ccc2[nH]cc(C3CCN(C)CC3)c2c1 [Naratriptan HCl],108
26,CC(C)=CC[C@@H](O)C1=CC(=O)c2c(O)ccc(O)c2C1=O [Shikonin],89.3
27,NC(=O)c1cc[n+](CC2=C(C(=O)[O-])N3C(=O)[C@@H](NC(=O)[C@@H](c4ccccc4)S(=O)(=O)O)[C@H]3SC2)cc1 [Cefsulodin sodium salt],102

row,SMILES,nuclei count
1,"CCCCCC#CCC#CCC#CCC#CCCCC(=O)O [5,8,11,14-Eicosatetraynoic acid]",98.5
2,C[C@]12CC[C@H](O)CC1=CC[C@@H]1[C@@H]2CC[C@]2(C)C(n3cnc4ccccc43)=CC[C@@H]12 [Galeterone (TOK-001)],105
3,CC1=C(/C=C/C(C)=C/C=C/C(C)=C/C(=O)O)C(C)(C)CCC1 [Retinoic acid],106 ± 6.2
4,CC1=C(/C=C/C(C)=C/C=C/C(C)=C/C(=O)O)C(C)(C)CCC1 [Retinoic Acid],103
5,"CC1=C(/C=C/C(C)=C/C=C/C(C)=C/C(=O)O)C(C)(C)CCC1 [Retinoic acid, all trans]",93.9
6,N[C@@H](CCC(=O)N[C@@H](CS)C(=O)NCC(=O)O)C(=O)O [Glutathione],101
7,c1ccc(-c2[nH]ncc2-c2ccnc3ccccc23)nc1,106
8,CCC1(c2ccccc2)NC(=O)N(C)C1=O (centres undefined) [Mephenytoin],107
9,NC(=O)CNCCC(c1ccccc1)c1ccccc1 [N20C hydrochloride],99.4
10,CCc1c(C)[nH]c2c1C(=O)C(CN1CCOCC1)CC2 (centres undefined) [Molindone hydrochloride],101
11,C#Cc1cccc(Nc2ncnc3cc4c(cc23)OCCOCCOCCO4)c1 [Icotinib],102.5 ± 0.67
12,C=CC(=O)Nc1cc(Nc2nccc(-c3cn(C)c4ccccc34)n2)c(OC)cc1N(C)CCN(C)C,33
13,O=C(O)c1ccc(-c2c[nH]c3ncc(-c4ccccc4)cc23)cc1C1CCCC1,74.3 and 67.3
14,Cc1ncc(CO)c(CO)c1O [Pyridoxine hydrochloride],91.6
15,CN1CCc2cc(Cl)c(O)cc2[C@@H](c2ccccc2)C1,103
16,CC1(C)[C@H](C(=O)O)N2C(=O)C[C@H]2S1(=O)=O [Sulbactam sodium (Unasyn)],87.4
17,CC1(C)[C@H](C(=O)O)N2C(=O)C[C@H]2S1(=O)=O [Sulbactam],108
18,CC(C)c1cc(-c2n[nH]c(=O)n2-c2ccc3c(ccn3C)c2)c(O)cc1O [Ganetespib (STA-9090)],52.1
19,O=C(O)C1CCCN(CCC=C(c2ccccc2)c2ccccc2)C1 (centres undefined),95.2
20,CC(=O)O[C@]1(C(C)=O)CC[C@H]2[C@@H]3C=C(Cl)C4=CC(=O)[C@@H]5C[C@@H]5[C@]4(C)[C@H]3CC[C@@]21C [Cyproterone acetate],101 ± 4.3
21,COc1cccc(CCc2ccccc2OCC[C@@H]2C[C@@H](O)CN2C)c1,101
22,Clc1ccc(CO/N=C(\Cn2ccnc2)c2ccc(Cl)cc2Cl)c(Cl)c1 [Oxiconazole Nitrate],97.9
23,COc1ccc(-c2ccc3ncc4c(c3c2)n(-c2ccc(N3CCNCC3)c(C(F)(F)F)c2)c(=O)n4C)cn1,16.4 ± 5.4
24,C#C[C@]1(OC(C)=O)CC[C@H]2[C@@H]3CCC4=CC(=NO)CC[C@@H]4[C@H]3CC[C@@]21CC (mixture of isomers) [Norgestimate],93.5
25,O=C(O)COCCN1CCN(C(c2ccccc2)c2ccc(Cl)cc2)CC1 (centres undefined) [Cetirizine dihydrochloride],97.8 ± 2.9
